# In the supplement of paper PMC11417369:
# This is one part of the list.
# System: PF3D7_0420300 AP2 domain 1 (GST-tagged)
# Assay: gcPBM binding intensity (ln(normalized median fluorescence intensity)); higher = stronger DNA binding
# Summary of the method: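 The binding buffer was 1× PBS containing 1% milk, 0.2 mg/ml BSA, 0.5% salmon testes DNA and 0.03% Triton X-100. In it, GST-tagged P. falciparum DNA-binding domains expressed in E. coli were applied for 1 h to an Agilent 4 × 180k array of primer-extended double-stranded 36-bp intergenic genomic probes plus negative controls. Binding intensity, read with Alexa488 anti-GST antibody and a 488 nm scan, is the highest Masliner-normalised natural-log median intensity across replicate spots of either probe orientation.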
row,Sequence,gcPBM binding intensity (ln)
1,AATGATACACATATATGTACATATATATATATATAT [XGTACX_site5391],9.45
2,ATATGGATTATACATACATGCATACATACATACATA [TGCATGCA_site475],9.24
3,TATATACATATATGCACACAAAAAAATATATATTTT [CACACA_site1729],9.39
4,AAAATTTAATATAATGCACACATAAAACAAAAACAA [CACACA_site8071],9.74
5,AAATGTAGAAAAAGTTGTACACTGTTTCAAAAATAA [XGTACX_site1063],9.13
6,TTTAAAGTTTTATACACACACCAAAGTTATTCTAAT [CACACA_site6432],9.56
7,CAATGAAAAATAATGAGTACATAGTTAATAAAGATA [XGTACX_site72],9.49
8,AATTTCTTTTTCGATATACACACTGTATGTGTCTAA [CACACA_site3975],9.43
9,ATAATTAAAATTAAATGTACTTTTTTATATATTTTT [XGTACX_site2209],9.05
10,ATATTTTATTATATAGGTACACATAATTTCATGTAA [XGTACX_site415],9.22
11,ATCTTAATTTTTGAAGGTACACACTAATATATTAAA [XGTACX_site2292],9.25
12,TATATAGTAAATATTTGTACATAATAAAATATATGT [XGTACX_site7873],9.26
13,TTTTGTACATCTTTTGCACACGTAATGTTATTATAA [CACACA_site1259],9.51
14,AATAAATAAAAATGCACACAGTTAACATGTTGAATT [CACACA_site4795],9.68
15,TATAATATAAAAATGAGTACATAGATAATAATATTT [XGTACX_site2376],9.43
16,TTTTTTTTTTATTAATGTACAAGATATATAATGTTA [XGTACX_site4809],8.88
17,TTTTAGTTATTGTATTATTATTAATATATAATATCT [CACACA_negctrl_site1528],9.25
18,CTAAAATGTAAAAACGCACACATAATATTATAAAAA [CACACA_site2788],9.62
19,AAAGCATGTTAATATGTATAAATACTGATCATTCAC [GTGCAC_negctrl_site576],9.22

row,Sequence,gcPBM binding intensity (ln)
1,TATATAAATAAACACACACACACCTTATAATTATTA [CACACA_site9345],9.93
2,CTTGTCATTTGGCACACACACATGTATAGGTTATTA [CACACA_site5656],9.9
3,TGAATAAATCAAAGCACACATACACAGACATATATA [CACACA_site4316],9.76
4,AACAGATAATATAAAAAAAAAAAAAAAAATAATTAA [GTGCAC_negctrl_site69],9.26
5,GTAGTGGTTGAATATACACACATATATATATATATA [CACACA_site2651],9.46
6,AACGTGTATTTATATTGTACACATTCATACATCAAA [XGTACX_site3644],9.31
7,AGATAATAGGTTACTTGTACATATAAATAAATATAT [XGTACX_site158],9.17
8,ATATTAATTTCTCATGCATGTTCTACCCAATTGTAA [TGCATGCA_site355],9.35
9,AAAATCTAATATAATGCACACATAAAAAAAAATCAA [CACACA_site9211],9.5
10,TTTTGTTATTATGAAGTGCATTTATGTTCATGTCTA,9.22
11,AAAAAAAAAAAAAATTCACACAAGACTACTACATTT [CACACA_site4195],9.36
12,ATATATGACTAATAAAGTACATACTTCATATAATTA [XGTACX_site6699],9.09
13,ACCCTTTTATATAAGAGTACAAACGTATTATTAAAT [XGTACX_site2221],9.14
14,AATATTAAAAACAAAACACACAAAAAAAAATAAAAT [CACACA_site702],9.87
15,TATATTATATATATACTGCACTGTTTTACAAAATTA,9.17
16,TGTGTATAAGTCACTTGTACTAGTAGTAAAAAAAAA [XGTACX_site4341],9.15
17,TAATATATGTTATATACACACATATAAATATAAATA [CACACA_site6339],9.2
18,TGAAGTATAATTTATCTAATATGTTATATTTTATTT [TGCATGCA_negctrl_site56],9.14
19,CAAATAATATTATGAAGTACTTCAAATTTTGAAAGA [XGTACX_site2530],9.04

row,Sequence,gcPBM binding intensity (ln)
1,TTTAATATTATTATTTTACACACTTTTTTCCTTTTA [CACACA_site8780],9.42
2,AATATAGGTATATCCACACACATATTTATATTTATA [CACACA_site6867],9.67
3,TCTTATAAACTCTGCACACATAATATATTAAATGAG [CACACA_site1936],9.31
4,TAAAGTTTTTCCTATCTATATTTATATTATAAATGA [XGTACX_negctrl_site20],8.87
5,GTGAGTGAAATATGCAAACACACACCCGAAAAATGT [CACACA_site3197],9.57
6,TATAAAGGTATACAAAGTACAAAATACATATATACT [XGTACX_site6431],9.45
7,TATGATTTTAATGAAACACACAATTTTATGTTAATA [CACACA_site311],9.18
8,AGGTGCTTAATATATACACACATACAGATATATATA [CACACA_site5552],9.46
9,GAACTCATTACAAAGTGTACAAATTAAATAAATGGT [XGTACX_site3995],9.18
10,TTTTTCTTATTTGGATTGCACTACATATATATATAT,9.41
11,ATAAGGTTACAACAAACACACAAAGGAATATACACA [CACACA_site7840],9.87
12,AAAATTTTTTGAAATAGTACTTTTTTATATATATAT [XGTACX_site2634],9.04
13,CAACAAAATAAACACACACACACAAACACAAAAAAA [CACACA_site5806],10.3
14,TATAAATTTATATATGCATGTCAGAAAAAAAAGTAA [TGCATGCA_site414],9.23
15,ACAAAAAATTAATGAGAAATGGAATAATAAGTTATA [GTGCAC_negctrl_site321],9.31
16,GGATATTAATAAATATGTACATATGTAGATTTATTA [XGTACX_site554],9.31
17,TGTATACCTTAATATACACACATACCTATATTTATA [CACACA_site6746],9.46
18,TATAAATAGAGGAAGCGTACATATATATATATATAT [XGTACX_site4993],9.34
19,ATATATAAATATATATGTACATAAATATATATCTTT [XGTACX_site6910],9.19
